Source: PubChem BioAssay (Tox21)
Inconclusive means that the source gave no clear call. Such entries were picked first, then a sample of the others. For some assays here: Potencies of inconclusive entries are left out as doubtful fits. Calls of active or inactive are those of the source. Unless noted, calls come from the whole dose curve; as a rule, active = well fitted curve in the direction sought with a large enough effect in the repeat runs; inconclusive = weak or mixed curves; inactive = no such curve, though single readings can be large; an effect the other way counts as inactive or inconclusive.

Legend:
[1] = qHTS assay for small molecule agonists of the antioxidant response element (ARE) signaling pathway - cell viability counter screen (AID 743203; calls by dose curve; note: % is set by controls: 0 for no effect and ±100 for the full control effect; nearly all actives have a fitted effect of over 55% in size); conditions: ARE-bla HepG2 viability, CellTiter-Glo luminescence, 16 h; viability change, negative = cytotoxic: at 73.3 µM (top of the series)
Procedure, shortened: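 Following 16 hrs of compound treatment at 37C, HepG2 cells with an ARE-controlled beta-lactamase gene were lysed with CellTiter-Glo. Luminescence was read after 30 min at room temperature.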

[2] = qHTS assay to identify small molecule agonists of the sonic hedgehog signaling (Shh) pathway - cell viability counter screen (AID 1259366); note: nearly all actives have a fitted effect of over 50% in size; note: potency is the fitted concentration of half-maximal effect; for viability change, negative = cytotoxic: % is set by controls: 0 for no effect and ±100 for the full control effect
Procedure, shortened: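 CellTiter-Fluor fluorescence read-out, 1 hr at 37C, added after 23hr compound exposure. Cells: 3T3 Gli1-Luc, an NIH/3T3 clone with stably integrated Gli1-Luc reporter, plated 4hr before compound.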

[3] = qHTS assay to identify small molecule antagonists of the sonic hedgehog signaling (Shh) pathway - cell viability counter screen (AID 1259367); note: nearly all actives have a fitted effect of over 55% in size; note: potency is the fitted concentration of half-maximal effect; for viability change, negative = cytotoxic: % is set by controls: 0 for no effect and ±100 for the full control effect
Procedure, shortened: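 Cells: 3T3 Gli1-Luc, 2,000/well, 4 hr pre-incubation. Compounds in DMSO, then conditioned medium. Incubation 24 hr, 37C, 5% CO2. CellTiter-Fluor at 23 hr, 1 hr, fluorescence.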

[4] = qHTS assay to identify small molecule agonists of the androgen receptor (AR) signaling pathway in the presence of an antagonist - cell viability counter screen (AID 1259379); note: nearly all actives have a fitted effect of over 25% in size; note: potency is the fitted concentration of half-maximal effect
Procedure, shortened: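 Seed MDA-kb2 at 3,000 cells/well; incubate 5 hr, 37C, 0% CO2. Add nilutamide to 3.0uM final, then pin compounds at 15 concentrations. Incubate 16 hr. Add CellTiter-Fluor at 15 hr, read fluorescence after 1 hr.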

[5] = qHTS assay to identify small molecule agonists of the TGF-beta/Smad signaling pathway - cell viability counter screen (AID 1346829); note: top concentration of the series differs between compounds; % is set by controls: 0 for no effect and ±100 for the full control effect; nearly all actives have a fitted effect of over 45% in size
Procedure, shortened: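 In parallel with the Smad reporter read, viability of HEK 293T cells stably carrying SBE-bla is quantified by ATP luminescence following 5 hr compound treatment.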

[6] = A CellTox Green Cytotoxicity Assay to monitor cytotoxicity in HepG2 cells - 8 hour (AID 1224890); note: nearly all actives have a fitted effect of over 45% in size; note: potency is the fitted concentration of half-maximal effect
Procedure, shortened: (§1)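 Using 1536-well format, dye-containing HepG2 suspension was seeded, allowed 5 h at 37 C/5% CO2, dosed by pintool with compounds, positive and negative controls, and imaged for fluorescence across 40 h.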

[7] = Caspase-3/7 induction in CHO-K1 cells by small molecules, qHTS assay (AID 1346980); note: % is set by controls: 0 for no effect and ±100 for the full control effect; nearly all actives have a fitted effect of over 15% in size
Procedure, shortened: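 Luminescent Caspase-Glo 3/7 read (30min, room temperature) quantified apoptosis induction. Cells were wild-type CHO-K1, treated with compound for 17hr at 37 C and 5% CO2.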

[8] = qHTS assay to identify small molecule agonists of the estrogen receptor alpha (ER-alpha) signaling pathway in the presence of an antagonist - cell viability counter screen (AID 1259386);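 note: cells exposed to compounds for 22 h at 37 °C before the viability read; % is set by controls: 0 for no effect and ±100 for the full control effect; nearly all actives have a fitted effect of over 30% in size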
Procedure, shortened: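 Viability counter screen using VM7Luc4E2 (full-length ER-alpha, four ERE-luciferase). The cells were treated with compounds alongside ICI-182,780 10.0nM for 22hr, and live-cell protease fluorescence was quantified with CellTiter-Fluor.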

[9] = qHTS assay to identify small molecule antagonists of the estrogen receptor beta (ER-beta) signaling pathway - cell viability counter screen (AID 1259382); note: nearly all actives have a fitted effect of over 55% in size; note: potency is the fitted concentration of half-maximal effect
Procedure, shortened: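 In this multiplexed counter screen, cells were seeded at 2,000 per well in medium with 2% charcoal-stripped FBS and incubated 6 hr before compound and 1nM final E2 were added. Sixteen hours later, ATP-based luminescence reported viability.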

Aromatase (Homo sapiens) = Aromatase (Homo sapiens) (UniProt P11511); test: qHTS assay to identify aromatase inhibitors (AID 743083); note: nearly all actives have a fitted effect of over 55% in size; note: potency is the fitted concentration of half-maximal effect
[10] = target: Nuclear receptor subfamily 1 group I member 2 (Homo sapiens) (UniProt O75469); test: CYP3A4 induction through human pregnane X receptor (PXR) by small molecules, qHTS assay (AID 1346984); conditions: DPX-2 HepG2 PXR, CYP3A4-luciferin luminescence, 24 h; activation: at 46.1 µM (top of the series) unless noted; note: nearly all actives have a fitted effect of over 40% in size; note: potency is the fitted concentration of half-maximal effect
Procedure, shortened: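 Readings come from a luciferase reporter: DPX-2 cells, which are HepG2 cotransfected with PXR and a CYP3A4-promoter construct, were exposed to test compounds for 24 h at 37C before One-Glo detection.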

[11] = target: Nuclear receptor subfamily 1 group I member 3 (Homo sapiens) (UniProt Q14994); test: qHTS assay to identify small molecule agonists of the constitutive androstane receptor (CAR) signaling pathway (AID 1224839); note: potency is the fitted concentration of half-maximal effect; nearly all actives have a fitted effect of over 15% in size
Procedure, shortened: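 Luminescence read-out (ONE-Glo, 30 min, room temperature) from double-stable HepG2-CYP2B6-hCAR cells exposed 24 h to 15-point compound series in presence of 0.75 uM PK11195 final.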

[12] = A CellTox Green Cytotoxicity Assay to monitor cytotoxicity in HepG2 cells - 24 hour (AID 1224878); note: nearly all actives have a fitted effect of over 45% in size; note: potency is the fitted concentration of half-maximal effect; for Cytotoxicity: % is set by controls: 0 for no effect and ±100 for the full control effect
Procedure, shortened: as §1

[13] = A CellTox Green Cytotoxicity Assay to monitor cytotoxicity in HEK293 cells - 24 hour (AID 1224875); note: nearly all actives have a fitted effect of over 45% in size; note: potency is the fitted concentration of half-maximal effect
Procedure, shortened: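 Fluorescence intensity, read at 0, 8, 16, 24, 32 and 40 h of compound treatment, reflected dye binding to DNA of dead HEK293 cells; compounds (23 nL, DMSO) were added 5 h after plating cells with reagent.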

[14] = qHTS assay to identify small molecule antagonists of the glucocorticoid receptor (GR) signaling pathway - cell viability counter screen (AID 720693); conditions: GR-bla HeLa viability, CellTiter-Glo luminescence, 18 h, with 5 nM dexamethasone present; viability change, negative = cytotoxic: at 58.5 µM (top of the series); note: nearly all actives have a fitted effect of over 55% in size; note: potency is the fitted concentration of half-maximal effect; for viability change, negative = cytotoxic: % is set by controls: 0 for no effect and ±100 for the full control effect
[15] = qHTS assay to identify small molecule agonists of the TGF-beta/Smad signaling pathway (AID 1346859; active = well fitted activation curve with a large enough effect in the signal ratio in the repeat runs, not every such curve was filed as active; inconclusive = weak or mixed curves; the % refers to the signal ratio; note: potency is the fitted concentration of half-maximal effect)
Procedure, shortened: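 Read-out: fluorescence at 460 and 530 nm (405 nm excitation) after a 2 hr room-temperature incubation with beta-lactamase FRET substrate. SBE-bla HEK 293T cells had been treated with test compounds for 5 hr at 37 C.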

[16] = Caspase-3/7 induction in HepG2 cells by small molecules, qHTS assay (AID 1346978); note: % is set by controls: 0 for no effect and ±100 for the full control effect; nearly all actives have a fitted effect of over 15% in size
Procedure, shortened: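 Caspase-3/7 induction was measured by Caspase-Glo 3/7 luminescence (30 min, room temperature) after a 17 hr compound exposure of wild-type HepG2 cells seeded at 2,000 per well and pre-incubated 5 hr.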

[17] = target: Androgen receptor (Homo sapiens) (UniProt P10275); test: qHTS assay to identify small molecule antagonists of the androgen receptor (AR) signaling pathway using the MDA cell line in the presence of 0.5 nM R1881 (AID 1259243); note: potency is the fitted concentration of half-maximal effect; nearly all actives have a fitted effect of over 50% in size
Procedure, shortened: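 Reporter cells cultured without CO2 receive test chemicals, then 0.5 nM R1881 final; after 16 hr at 37C, ONE-Glo is added and light output recorded.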

[18] = target: Peroxisome proliferator-activated receptor delta (Homo sapiens) (UniProt Q03181); test: qHTS assay to identify small molecule agonists of the peroxisome proliferator-activated receptor delta (PPARd) signaling pathway (AID 743212; calls by dose curve;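 note: HEK293H cells with PPARd UAS beta-lactamase reporter GeneBLAzer system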; note: potency is the fitted concentration of half-maximal effect); conditions: HEK293H PPARd-UAS-bla, beta-lactamase FRET ratio, 17 h; activation: at 62.6 µM (top of the series) unless noted
Procedure, shortened: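 HEK293H PPARd-bla cells; 5 h preincubation 37 C/5% CO2; compound (DMSO) 37 C; LiveBLAzer B/G FRET substrate 2 h RT; fluorescence intensity.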

[19] = qHTS RealTime-Glo MT Cell Viability Assay in HepG2 cells - 8 hour (AID 1224873)
Procedure, shortened: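 Real-time viability: cells seeded at 600 per well together with NanoLuc and cell-permeant prosubstrate, compounds added after 5 h incubation. Luminescence tracked at 0, 8, 16, 24, 32 and 40 h of exposure.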
Tags give direction and shape of the fitted curve or compound fluorescence and quenching.

Sequence of UniProt P11511 (P11511 whole entry, looked up): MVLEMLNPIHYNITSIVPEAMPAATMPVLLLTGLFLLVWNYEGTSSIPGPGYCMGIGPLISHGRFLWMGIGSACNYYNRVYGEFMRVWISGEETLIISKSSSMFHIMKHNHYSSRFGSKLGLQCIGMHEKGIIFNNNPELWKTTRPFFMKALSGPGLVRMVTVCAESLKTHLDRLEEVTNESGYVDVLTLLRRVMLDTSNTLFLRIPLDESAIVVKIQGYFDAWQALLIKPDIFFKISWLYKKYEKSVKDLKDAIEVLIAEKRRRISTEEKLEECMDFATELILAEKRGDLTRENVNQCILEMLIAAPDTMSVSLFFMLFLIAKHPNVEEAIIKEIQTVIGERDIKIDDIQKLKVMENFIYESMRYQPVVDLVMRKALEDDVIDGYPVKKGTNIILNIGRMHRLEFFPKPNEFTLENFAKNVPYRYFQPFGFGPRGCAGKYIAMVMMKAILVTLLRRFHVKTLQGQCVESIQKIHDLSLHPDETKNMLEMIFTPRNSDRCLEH
Sequence of UniProt Q03181 (Q03181 whole entry, looked up): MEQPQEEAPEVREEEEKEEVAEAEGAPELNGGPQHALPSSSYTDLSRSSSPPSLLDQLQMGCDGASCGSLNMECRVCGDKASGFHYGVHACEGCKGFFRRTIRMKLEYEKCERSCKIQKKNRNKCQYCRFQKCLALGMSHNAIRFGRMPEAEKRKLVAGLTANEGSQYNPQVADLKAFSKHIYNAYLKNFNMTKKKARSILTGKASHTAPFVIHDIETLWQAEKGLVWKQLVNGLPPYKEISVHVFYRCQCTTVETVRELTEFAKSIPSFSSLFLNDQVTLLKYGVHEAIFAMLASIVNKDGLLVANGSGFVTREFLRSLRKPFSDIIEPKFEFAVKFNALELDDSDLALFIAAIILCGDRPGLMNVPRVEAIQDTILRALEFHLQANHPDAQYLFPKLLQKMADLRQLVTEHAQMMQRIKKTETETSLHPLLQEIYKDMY
Sequence of UniProt Q14994 (Q14994 whole entry, looked up): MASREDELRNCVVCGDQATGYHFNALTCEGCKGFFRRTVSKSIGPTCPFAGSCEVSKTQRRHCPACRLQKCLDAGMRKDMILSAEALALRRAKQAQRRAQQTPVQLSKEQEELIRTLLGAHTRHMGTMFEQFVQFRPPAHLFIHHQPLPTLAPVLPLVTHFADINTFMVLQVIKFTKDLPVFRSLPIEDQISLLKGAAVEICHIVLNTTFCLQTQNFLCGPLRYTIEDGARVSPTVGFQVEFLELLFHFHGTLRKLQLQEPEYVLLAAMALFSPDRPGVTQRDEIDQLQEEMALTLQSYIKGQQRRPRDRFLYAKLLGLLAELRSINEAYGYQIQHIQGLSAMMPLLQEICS
Sequence of UniProt P10275 (P10275 whole entry, looked up): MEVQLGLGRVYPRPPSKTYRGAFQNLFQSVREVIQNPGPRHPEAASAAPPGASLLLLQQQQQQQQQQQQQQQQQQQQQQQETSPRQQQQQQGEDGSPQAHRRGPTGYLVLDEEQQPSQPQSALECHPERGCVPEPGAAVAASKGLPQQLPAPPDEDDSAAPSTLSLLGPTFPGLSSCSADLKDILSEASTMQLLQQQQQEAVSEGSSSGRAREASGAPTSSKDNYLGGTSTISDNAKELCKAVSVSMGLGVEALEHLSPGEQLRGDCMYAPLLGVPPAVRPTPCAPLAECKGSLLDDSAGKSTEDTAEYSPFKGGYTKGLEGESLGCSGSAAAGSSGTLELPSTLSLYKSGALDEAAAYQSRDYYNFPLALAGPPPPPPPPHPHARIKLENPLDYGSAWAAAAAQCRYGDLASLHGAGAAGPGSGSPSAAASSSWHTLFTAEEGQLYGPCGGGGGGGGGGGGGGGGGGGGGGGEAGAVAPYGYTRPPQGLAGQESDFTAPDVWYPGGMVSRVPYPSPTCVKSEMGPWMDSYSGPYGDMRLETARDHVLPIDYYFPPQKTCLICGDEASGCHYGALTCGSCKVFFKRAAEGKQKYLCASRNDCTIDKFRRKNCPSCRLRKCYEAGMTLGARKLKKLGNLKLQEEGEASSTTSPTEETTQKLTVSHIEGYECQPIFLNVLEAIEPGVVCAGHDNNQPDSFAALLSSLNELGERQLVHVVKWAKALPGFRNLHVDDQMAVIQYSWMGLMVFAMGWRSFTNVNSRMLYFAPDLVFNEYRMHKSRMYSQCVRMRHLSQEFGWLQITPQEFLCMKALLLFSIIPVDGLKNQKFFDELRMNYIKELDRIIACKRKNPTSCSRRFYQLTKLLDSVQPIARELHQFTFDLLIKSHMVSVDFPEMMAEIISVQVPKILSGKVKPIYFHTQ

In the case of Cc1ncc([C@@H](CCCCCCc2ccc3c(n2)NCCC3)CC(=O)O)cn1, the Potency [1] is reported as “inactive”, the Potency [2] is reported as inconclusive [cytotoxic, partial curve] and the Potency [3] is reported as inconclusive [cytotoxic, partial curve].

For O=C(O)CCNC(=O)c1ccc(N=Nc2ccc(O)c(C(=O)O)c2)cc1, the Potency [2] was inconclusive [cytotoxic, partial curve], the Potency [4] was inconclusive [cytotoxic, partial curve] and the Potency [5] was “inactive”.

For CC(=O)[C@@]1(O)CC[C@H]2[C@@H]3C[C@H](C)C4=CC(=O)C=C[C@]4(C)[C@@]3(F)[C@@H](O)C[C@@]21C, the Potency [6] was “inactive” and the Potency [7] was “inactive”.

For CCn1c(=O)c2c(nc(/C=C/c3ccc(OC)c(OC)c3)n2C)n(CC)c1=O, the Potency [4] was “inactive” and the Potency [8] was “inactive”.

In the case of CC1(C)Cc2cccc(N)c2O1, the Potency [9] is reported as “inactive”.

With N[C@@H](CCC(=O)N[C@@H](CS)C(=O)NCC(=O)O)C(=O)O the caspase-3/7 activation [7] was inactive: -0.229% [at 19 µM].

In the case of Cc1cc(=O)[nH]c(=S)[nH]1, the Potency (Aromatase (Homo sapiens)) is reported as “inactive”.

With O=C(CCCN1CCN(c2ccccn2)CC1)c1ccc(F)cc1 the Potency [4] was “inactive” and the Potency [10] was active: 12.6 µM.

With CCOC(=O)[C@H](CCc1ccccc1)N[C@@H](C)C(=O)N1[C@H](C(=O)O)C[C@@H]2CCC[C@@H]21 the Potency [6] was “inactive”.

For O=C(CN1CCN(Cc2ccc3c(c2)OCO3)CC1)N1c2ccccc2Sc2ccccc21, the Potency [11] was inconclusive [activator, partial curve, poor fit] and the Potency [12] was “inactive”.

For CCN1CCC[C@H]1CNC(=O)c1cc(S(N)(=O)=O)ccc1OC, the Potency [1] was “inactive” and the Potency [2] was “inactive”.

With O=C(O)CSCC(=O)NC1CCSC1=O (stereo not given) the Potency [13] was “inactive” and the Potency [3] was “inactive”.

In the case of CCOc1cc([N+](=O)[O-])c(OCC)cc1N1CCOCC1, the viability change, negative = cytotoxic [14] is reported as inconclusive: 43.5%, the Potency [4] is reported as inconclusive [cytotoxic, partial curve] and the Potency [15] is reported as inconclusive [rising, partial curve, poor fit].

In the case of c1coc(Cn2cccc2)c1, the Potency [15] is reported as “inactive”.

For CC(c1cc2ccccc2s1)N(O)C(N)=O (stereo not given), the Potency [13] was inconclusive [activator, single point], the Potency [16] was “inactive” and the Potency [10] was “inactive”.

For CCCCC(CC)C(=O)OC(C)C (stereo not given), the Potency [14] was inconclusive [rising, single point].

For O=c1[nH]c(=O)n([C@H]2C[C@H](O)[C@@H](CO)O2)cc1Br, the Potency [5] was “inactive”.

For CC(C)C(=O)Nc1cccc(C(F)(F)F)c1, the Potency [1] was “inactive” and the Potency [17] was inconclusive [inhibitor, partial curve].

In the case of COc1cc(OC)nc(O[C@H](C(=O)O)C(OC)(c2ccccc2)c2ccccc2)n1, the Potency [5] is reported as “inactive”.

With CC(C(=O)O)c1ccc2c(c1)CC(=O)c1ccccc1S2 (stereo not given) the Potency [18] was inconclusive [rising, partial curve, poor fit].

For CCCCOC(=O)C(C)OC(=O)CCC (stereo not given), the Potency [4] was “inactive”.

With C[N+](C)(C)CCOC(=O)CCC(=O)OCC[N+](C)(C)C the Potency [14] was inconclusive [rising, single point].

In the case of C[C@H]1C[C@@H](O)CC(C)(C)C1, the Potency [13] is reported as inconclusive [activator, single point].

For CCCCCCCCCOCC1CO1 (stereo not given), the Potency (Aromatase (Homo sapiens)) was inconclusive [inhibitor, partial curve, poor fit].

With CNCCO the Potency [1] was “inactive” and the Potency [18] was “inactive”.

In the case of CC(=O)SC[C@@H](C)C(=O)N1CCC[C@H]1C(=O)N[C@@H](Cc1ccccc1)C(=O)O, the Potency [13] is reported as “inactive” and the Potency [15] is reported as “inactive”.

For CCN(CC)CCNC(=O)COc1ccc(Cl)cc1, the Potency [19] was “inactive” and the Potency [12] was inconclusive [activator, partial curve].

With O=C(O)C(S)C(S)C(=O)O (stereo not given) the Potency [14] was “inactive”.

With Oc1ccccc1Cc1ccccc1O the Potency [11] was inconclusive [activator, partial curve, poor fit], the Potency [12] was inconclusive [activator, single point] and the Potency [6] was inconclusive [activator, single point]. The Potency [9] was inconclusive [cytotoxic, partial curve, poor fit].
